Data taken from PubChem BioAssay AID504832 (National Center for Advancing Translational Sciences (NCATS), 2011).
The campaign covered roughly 310,000 compounds. About 18,000 (5.8%) were called active. Inconclusive means that the source gave no clear call. Such entries were picked first, then a sample of the others. The call rests on the fitted dose curve; in most records, active means well fitted inhibition curve with a large enough effect; inconclusive means small, poorly fitted or top-dose-only effect, or another doubt; inactive means no such curve, though single readings can be large or run the other way. No potency is given beside an inconclusive call; the fits are too rough.

Experiment: Primary qHTS for delayed death inhibitors of the malarial parasite plastid, 48 hour incubation
Details: P. falciparum luciferase growth in erythrocytes; series mostly up to 28.7 µM
How it was run: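 Here the parasites carry a stable luciferase gene and grow inside erythrocytes in Albumax-based RPMI medium with compound for one erythrocytic cycle. Activity is scored as loss of luminescent signal.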
Potency means the concentration at half of the fitted maximal effect; tags describe the fitted curve by direction and shape.

Structure (SMILES) | Potency
Cc1nc2ccccc2nc(C)c1=NO | inactive
Cc1ccc(C)c(NC(=S)NNC(=S)Nc2ccc(C(C)C)cc2)c1 | inconclusive [inhibitor, single point]
COc1ccc2c(c1)CC(=O)NC=C2 | inactive
CC(CC(=O)Nc1nccs1)c1ccccc1 (stereo unspecified) | inconclusive [inhibitor, partial curve, poor fit]
Cc1ccc(S(=O)(=O)n2nc(-n3c(C)ccc3C)c3c(F)cccc32)c2ccccc12 | inconclusive [inhibitor, partial curve]
Cc1ccc(C(=O)/C=C/c2ccc(Br)cc2)o1 | inconclusive [inhibitor, partial curve, poor fit]
CC(=O)NC12CC3CC(C1)CC(C(=O)OCC(=O)Nc1ncc(Cl)cc1Cl)(C3)C2 | inconclusive [inhibitor, single point]
COc1ccc(/C=C2\SC(=S)N(CCCC(=O)Nc3ccccc3C(=O)O)C2=O)cc1OC | inconclusive [inhibitor, partial curve]
Cc1ccc(S(=O)(=O)CC(=O)Nc2ccc(S(=O)(=O)Nc3ccccn3)cc2)cc1 | inactive
CC1C/C(=N/Nc2ccc([N+](=O)[O-])cc2[N+](=O)[O-])CC(C)(C)C1 (stereo unspecified) | active: 10.4 µM
COc1ccc(-c2n[nH]c3c2CN(C(=O)c2ccccc2)CC3)cc1 | inactive
COc1ccc(C2=NOC(C(=O)NCc3ccccc3)C2)cc1 (stereo unspecified) | inconclusive [inhibitor, partial curve, poor fit]
Cc1cccn2c(=O)c(/C=C(\C#N)C(N)=O)c(N3CCCCCC3)nc12 | inconclusive [inhibitor, partial curve, poor fit]
CC(SC1=NCCN1S(C)(=O)=O)c1ccccc1 (stereo unspecified) | inactive
COc1ccc(C(=O)CCC(C)(C)[N+](=O)[O-])cc1 | inconclusive [inhibitor, single point]
COc1ccc(N2CCN(CCCNC(=O)C3(S(=O)(=O)c4ccc(Cl)cc4)CC3)CC2)cc1 | inconclusive [inhibitor, single point]
O=C(COC(=O)/C=C/c1ccc(S(=O)(=O)N2CCOCC2)cc1)NC1CCCCCCC1 | inactive
CN1CCc2ccccc2C1Cc1ccccc1NC(=O)c1sc2ccccc2c1Cl (stereo unspecified) | active: 8.28 µM
C=CCn1c(SCC(=O)c2ccc(O)c(O)c2)nnc1-c1cccc(OC)c1 | inconclusive [inhibitor, single point]
CCN(Cc1nc2ccccc2c(=O)[nH]1)C(=O)COc1ccccc1Cc1ccccc1 | inconclusive [inhibitor, partial curve]
CC(OC(=O)/C(C#N)=C/c1ccc(N(C)C)cc1)C(=O)NCc1ccco1 (stereo unspecified) | inconclusive [inhibitor, partial curve, poor fit]
O=C(Nc1nnc(-c2ccccc2)s1)c1cccc(S(=O)(=O)N2CCOCC2)c1 | inconclusive [inhibitor, partial curve]
COc1ccc(C(CNC(=O)c2cccc(S(=O)(=O)N3CCCC3)c2)N2CCCC2)cc1 (stereo unspecified) | inconclusive [inhibitor, partial curve, poor fit]
CC(C)C(NC(=O)c1ccccc1F)C(=O)NCc1ccc(F)cc1 (stereo unspecified) | inactive

Structure (SMILES) | Potency
CC1(C)Cc2c(cnn2-c2cccc(F)c2)C(NC(=O)Cn2cccn2)C1 (stereo unspecified) | inactive
CCCCN1C(=O)NC(c2ccc(OC)cc2)C(C(=O)OCc2ccccc2)=C1C (stereo unspecified) | inconclusive [inhibitor, partial curve, poor fit]
CC(C)CN(C(=O)c1cccc([N+](=O)[O-])c1)c1c(N)n(CC(C)C)c(=O)[nH]c1=O | inactive
COc1ccc(OC)c(CNn2c(-c3ccccc3F)nc3ccccc3c2=O)c1 | inconclusive [inhibitor, single point]
CN(C)/C=C/C(=C\C(=O)C(F)(F)F)Nc1ccc(C(F)(F)F)cc1 | inactive
CC(=O)N/N=C/c1c(C)[nH]n(-c2ccccc2)c1=O | inconclusive [inhibitor, partial curve, poor fit]
CC(=O)Nc1csc2ccccc12 | inactive
CCOC(=O)C1CCN(c2nc(N)c3c(N)nc(SCC(=O)O)cc3c2C#N)CC1 | active: 2.62 µM
COc1cc(OC)c(NC(=O)c2sc3ncn(CC(=O)N4CCOCC4)c(=O)c3c2C)cc1Cl | inconclusive [inhibitor, partial curve, poor fit]
Cc1ccc(NC(=O)C2CCCN2C(=O)OC(C)(C)C)cc1C (stereo unspecified) | inconclusive [inhibitor, partial curve, poor fit]
Cc1ccc(-c2nnc(-c3ccccc3S(=O)(=O)Cc3ccc(Cl)cc3)o2)cc1 | inconclusive [inhibitor, single point]
N#CCSc1nnc(COc2ccc3ccccc3c2)o1 | inactive
Cc1sc2cc3c(c(C(=O)c4ccccc4)[n+]2c1C)-c1cccc2cccc-3c12 | active: 0.828 µM
CCC(=NCCc1ccc(OC)c(OC)c1)c1ccccc1O | inconclusive [inhibitor, single point]
CCN(CC)S(=O)(=O)c1ccc2[nH]cc(C(=O)NCCN3CCCCCC3)c(=O)c2c1 | active: 1.85 µM
Cc1occc1-c1nnc(SCC(=O)Nc2ccc(F)cc2)n1C | inconclusive [inhibitor, partial curve, poor fit]
Cc1cc(C)nc(Nc2n[nH]c(COc3ccc4ccccc4c3)n2)n1 | inactive
Cc1cccc2sc(NC(=O)c3cc(S(=O)(=O)N(C)C)ccc3N3CCCC3)nc12 | inconclusive [inhibitor, partial curve]
NC1=NC(=O)/C(=C/c2cccs2)S1 | inactive
CCCCc1cc(=O)oc2cc(OCC(=O)N3C[C@H]4C[C@@H](C3)c3cccc(=O)n3C4)c(Cl)cc12 | inconclusive [inhibitor, full curve, poor fit]
CC(CN1CCOCC1)OC(=O)C(C)(c1ccccc1)c1ccccc1 (stereo unspecified) | inconclusive [inhibitor, partial curve, poor fit]
Cn1ccnc1SCC(=O)Nc1sccc1C#N | inactive
COCCNC(=O)NC12CC3(C)CC(C)(CC(C)(C3)C1)C2 | inactive
O=C(CSc1nnc(SCc2ccc(Cl)cc2)s1)N/N=C/c1ccc(Cl)cc1Cl | inactive

Structure (SMILES) | Potency
COc1ccc(-c2ccc(CCC(=O)O)n2NC(N)=O)cc1 | inactive
Cc1ccc(/C=N/NC(=O)Cn2cnc3c2c(=O)n(C)c(=O)n3C)s1 | inconclusive [inhibitor, partial curve]
CC(C)(C)NC(=O)NC(=O)CN1CCCc2ccccc21 | inconclusive [inhibitor, single point]
O=C1c2ccccc2C(=O)c2c1ccc1c(=O)n(C3CCCCC3)[nH]c21 | inconclusive [inhibitor, partial curve, poor fit]
O=Cc1ccc(O)c(O)c1 | inconclusive [inhibitor, partial curve, poor fit]
CC(OC(=O)C1CCCCC1)C(=O)Nc1ccc(S(N)(=O)=O)cc1 (stereo unspecified) | inactive
O=C(CSc1ccccc1)N/N=C/c1ccccc1O | inconclusive [inhibitor, single point]
Cc1cc(NC(=O)/C=C/C(=O)N(CC(=O)NC2CCCC2)c2cccc3ccccc23)no1 | active: 10.4 µM
CCCCC1CCC(C(=O)Nc2ccccc2N2CCOCC2)CC1 (stereo unspecified) | active: 14.7 µM
Cc1cc(CNC(=O)c2cc(COc3ccc(F)c(F)c3)on2)nn1C | inactive
CCC(C(=O)NC1CCCC1)N(C(=O)Cn1nnc(-c2ccc(OC)c(OC)c2)n1)c1cccc(O)c1 (stereo unspecified) | inconclusive [inhibitor, partial curve]
Cc1ccc(-n2nc3c(=O)n(CCCC(=O)N4CCCCC4)nc(C)c3c2C)cc1 | active: 9.28 µM
CC1CCCN(C(=O)C(C)Nc2cc(Cl)ccc2N2CCOCC2)C1 (stereo unspecified) | inconclusive [inhibitor, full curve, poor fit]
CNC(=O)c1c(C)nc(SCC(=O)NCc2ccc(OC)cc2)c(C#N)c1-c1ccco1 | inconclusive [inhibitor, single point]
CC1=C(C(=O)Nc2cccc(C(=O)NCc3ccccc3C)c2)SCCO1 | inconclusive [inhibitor, partial curve, poor fit]
COc1ccc(-c2cc(C(F)F)n3ncc(C(=O)N4CCN5CCCC5C4)c3n2)cc1 (stereo unspecified) | inconclusive [inhibitor, single point]
O=C(NCc1ccc(Cl)s1)C1CCC(=O)N(CCc2ccccn2)C1 (stereo unspecified) | inactive
COc1cc2ncnc(NCc3ccc(C)cc3)c2cc1OC | inconclusive [inhibitor, single point]
COc1cccc(NC(=O)c2ccnc(N3CCC(C(=O)NCc4cc(OC)ccc4OC)CC3)c2)c1 | inconclusive [inhibitor, single point]
O=C1CCC(C(=O)N2CCN(c3ccccc3)CC2)CN1CC1CCCCC1 (stereo unspecified) | inconclusive [inhibitor, single point]
O=C(CSc1nccc(=O)[nH]1)c1ccco1 | inactive
Cc1cccc(C)c1NC(=S)N1CCCN(Cc2ccc(F)cc2)C1 | inactive
COc1ccccc1N(CC(=O)Nc1ccc(Cc2ccncc2)cc1)S(=O)(=O)c1ccccc1 | active: 8.28 µM
